According to a collection of fitness landscapes (doi:10.1016/j.celrep.2020.107928):
The full ranking holds about 81,000 sequences; the median of “one-hybrid fitness for binding parS DNA” is about -0.17, and the highest 2% start at about 0.51. The list shows a part of the results.

B1: Caulobacter ParB omega fusion; a variant is named by its letters at X, in order, B8GW30 (parent)
chain: MESVVVGEPGMSEGRRGLGRGLSALLGEVDAAPAQAPGEQLGGSREAPIEILQRNPDQPRRTFREEDLEDLSNSIREKGVLQPILVRPSPDTAGEYQIVAGERAWRAAQRAGLKTVPIMVRELDDLAVLEIGIIENVQRADLNVLEEALSYKVLMEKFERTQENIAQTIGKSXSHVANXMRLLXLPDEVQSYLVSGELTAXHARAIAAAADPVALAKQIIEGGLSVRETEALARKAPNLSAGKSKGGRPPRVKDTDTQALESDLSSVLGLDVSIDHRGSTGTLTITYATLEQLDDLCNRLTRGI

Variants of: B1
Assay: one-hybrid fitness for binding parS DNA (scaled: cognate 1, non-cognate 0); higher = stronger binding
Settings: with parS DNA site
Summary of the method: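 Fitness is the rescaled log change in variant-to-wild-type read ratio, measured by Illumina sequencing of plasmids before and after bacterial one-hybrid selection. The scale puts cognate at 1 and non-cognate at 0. Selection of Caulobacter ParB libraries, four specificity codons randomised, took place in E. coli USO with a HIS3 reporter, site 19 bp from the promoter, over 48 hours at 37°C on M9-minus-histidine with 0.1 mM IPTG and 5 mM 3-AT.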

Variant	one-hybrid fitness for binding parS DNA
YFQC	≤ 0.2
SPGC	≤ 0.2
QIHR	≤ 0.2
NNMA	≤ 0.2
CAVD	≤ 0.2
QLHA	≤ 0.2
CLLW	≤ 0.2
SDNM	≤ 0.2
LEPR	≤ 0.2
VAPI	≤ 0.2
LCIR	≤ 0.2
RKTN	0.336
LSSI	≤ 0.2
YAVT	≤ 0.2
TRFE	≤ 0.2
FQSM	≤ 0.2
PDNF	≤ 0.2
CTVL	≤ 0.2
PWSA	≤ 0.2
PCQT	≤ 0.2
LRCT	≤ 0.2
GTNK	≤ 0.2
YIMW	≤ 0.2
PFDC	≤ 0.2

Variant	one-hybrid fitness for binding parS DNA
LFAS	≤ 0.2
KPFG	≤ 0.2
NRQF	≤ 0.2
PGGT	≤ 0.2
HTLT	≤ 0.2
GTIS	≤ 0.2
TWFN	≤ 0.2
RKTQ	≤ 0.2
CDDV	≤ 0.2
RNGI	≤ 0.2
MAWT	≤ 0.2
VAVW	≤ 0.2
KWNV	≤ 0.2
WESK	≤ 0.2
RRSN	0.695
KDGS	≤ 0.2
EGRS	≤ 0.2
GKQF	≤ 0.2
PQQD	≤ 0.2
EGPR	≤ 0.2
ANAT	≤ 0.2
FSNE	≤ 0.2
GEWA	≤ 0.2
VVKA	≤ 0.2

Variant	one-hybrid fitness for binding parS DNA
GCKY	≤ 0.2
MEHR	≤ 0.2
HQQT	≤ 0.2
HATI	≤ 0.2
APLH	≤ 0.2
DDTE	≤ 0.2
ICLC	≤ 0.2
PQNS	≤ 0.2
TLTR	≤ 0.2
VTGT	≤ 0.2
ETTY	≤ 0.2
PCDV	≤ 0.2
TIEI	≤ 0.2
VCSG	≤ 0.2
RMKP	≤ 0.2
AVMA	≤ 0.2
ESTG	≤ 0.2
ETTM	≤ 0.2
RNND	≤ 0.2
EMSA	≤ 0.2
NTDQ	≤ 0.2
QTMS	≤ 0.2
HVSP	≤ 0.2
RRKR	≤ 0.2

Variant	one-hybrid fitness for binding parS DNA
NYIL	≤ 0.2
FTDY	≤ 0.2
SMWT	≤ 0.2
RKLN	0.351
HFAD	≤ 0.2
GCAL	≤ 0.2
RYRF	≤ 0.2
GEKY	≤ 0.2
RHAC	0.933
MVIT	≤ 0.2
MYAK	≤ 0.2
WLII	≤ 0.2
YMPL	≤ 0.2
PHIF	≤ 0.2
AVRY	≤ 0.2
SKMV	≤ 0.2
AYPY	≤ 0.2
NVAC	≤ 0.2
FHSF	≤ 0.2
TEMV	≤ 0.2
PGMS	≤ 0.2
QGVN	≤ 0.2
GQQF	≤ 0.2
SARM	≤ 0.2

Variant	one-hybrid fitness for binding parS DNA
HYRT	≤ 0.2
WGSL	≤ 0.2
AAQT	≤ 0.2
TGVS	≤ 0.2
YCFS	≤ 0.2
GLDN	≤ 0.2
AHFG	≤ 0.2
ESRH	≤ 0.2
DATE	≤ 0.2
YCSS	≤ 0.2
VILG	≤ 0.2
CEHT	≤ 0.2
RKQN	0.3
IRTT	≤ 0.2
QMRR	≤ 0.2
CKKT	≤ 0.2
AKPF	≤ 0.2
RYVW	0.209
ADNS	≤ 0.2
DPYT	≤ 0.2
KQPR	≤ 0.2
IISL	≤ 0.2
SGRA	≤ 0.2
IDEP	≤ 0.2

Variant	one-hybrid fitness for binding parS DNA
LFVD	≤ 0.2
MGRC	≤ 0.2
HGTG	≤ 0.2
PIAW	≤ 0.2
WVEC	0.307
CWLC	≤ 0.2
QESK	≤ 0.2
WVIY	≤ 0.2
NYCL	≤ 0.2
LSNL	≤ 0.2
QSHV	≤ 0.2
KLET	≤ 0.2
TTTD	≤ 0.2
ELVS	≤ 0.2
VMTS	≤ 0.2
GHKC	≤ 0.2
QHPV	≤ 0.2
TLQV	≤ 0.2
DRWR	≤ 0.2
FILC	≤ 0.2
QEAA	≤ 0.2
TYES	≤ 0.2
MSKC	≤ 0.2
AMWS	≤ 0.2

Variant	one-hybrid fitness for binding parS DNA
WTTG	≤ 0.2
RRIK	≤ 0.2
DARG	≤ 0.2
AMLS	≤ 0.2
QNYT	≤ 0.2
HAVA	≤ 0.2
ELAT	≤ 0.2
IARC	≤ 0.2
QEIC	≤ 0.2
AGGD	≤ 0.2
FTKI	≤ 0.2
PKPC	≤ 0.2
QGQY	≤ 0.2
SWTV	≤ 0.2
TRER	≤ 0.2
TRDW	≤ 0.2
TGVT	≤ 0.2
ADWR	≤ 0.2
DIAR	≤ 0.2
QTYP	≤ 0.2
RHSA	0.515
DQDG	≤ 0.2
IVDK	≤ 0.2
AYEV	≤ 0.2

Variant	one-hybrid fitness for binding parS DNA
EYSD	≤ 0.2
RQIT	0.647
LYGS	≤ 0.2
NQKT	≤ 0.2
YQER	≤ 0.2
TIAK	≤ 0.2
YMAG	≤ 0.2
NVSC	≤ 0.2
VVHC	≤ 0.2
CNYE	≤ 0.2
NPSS	≤ 0.2
TDYS	≤ 0.2
VRSP	≤ 0.2
YCTT	≤ 0.2
RSQG	0.995
QYTS	≤ 0.2
RTPK	≤ 0.2
CTPS	≤ 0.2
QSWK	≤ 0.2
RMET	0.731
ACKC	≤ 0.2
SMEL	≤ 0.2
HMSY	≤ 0.2
IPLK	≤ 0.2

Variant	one-hybrid fitness for binding parS DNA
LLRC	≤ 0.2
NRIH	0.325
KIIS	≤ 0.2
TLMI	≤ 0.2
TPKF	≤ 0.2
VAWF	≤ 0.2
SMLR	≤ 0.2
VDAN	≤ 0.2
TLRP	≤ 0.2
ATAC	≤ 0.2
TAID	≤ 0.2
QMSN	≤ 0.2
YIPE	≤ 0.2
QNSQ	≤ 0.2
TYHR	≤ 0.2
SKQT	≤ 0.2
MARP	≤ 0.2
YRRK	≤ 0.2
TSRH	≤ 0.2
NAQR	≤ 0.2
WNTN	≤ 0.2
WTSC	≤ 0.2
QVKY	≤ 0.2
KPRT	≤ 0.2

Variant	one-hybrid fitness for binding parS DNA
IFWR	≤ 0.2
LPNM	≤ 0.2
PALS	≤ 0.2
RMSH	≤ 0.2
RKGG	0.937
TAAY	≤ 0.2
QPLT	≤ 0.2
ANLS	≤ 0.2
RQTC	0.966
IKVR	≤ 0.2
LQYG	≤ 0.2
CTLE	≤ 0.2
IDPK	0.227
CQVF	≤ 0.2
PMLE	≤ 0.2
GESN	≤ 0.2
FPYR	≤ 0.2
DCHS	≤ 0.2
KRTL	≤ 0.2
VPHE	≤ 0.2
WNTG	≤ 0.2
QVPT	≤ 0.2
DAVL	≤ 0.2
QMQG	≤ 0.2

Variant	one-hybrid fitness for binding parS DNA
EQLW	≤ 0.2
GLLL	≤ 0.2
IRQT	≤ 0.2
QALD	≤ 0.2
AYFR	≤ 0.2
QFKH	≤ 0.2
IKIC	0.201
PSSS	≤ 0.2
SPGQ	≤ 0.2
RGQC	0.649
QTDQ	≤ 0.2
ETLN	≤ 0.2
AGPS	≤ 0.2
RCID	≤ 0.2
RSPN	≤ 0.2
EEHG	≤ 0.2
QTHA	≤ 0.2
IQGF	≤ 0.2
IRQS	≤ 0.2
MAER	≤ 0.2
DCRM	≤ 0.2
ESCG	≤ 0.2
FANC	≤ 0.2
ATSM	≤ 0.2

Variant	one-hybrid fitness for binding parS DNA
CHLC	≤ 0.2
TLGP	≤ 0.2
KMPE	≤ 0.2
LLSC	≤ 0.2
RWGH	≤ 0.2
LVKC	≤ 0.2
VMPN	≤ 0.2
IVSM	0.508
SRMN	≤ 0.2
CGNG	≤ 0.2
VEIW	≤ 0.2
TQLA	≤ 0.2
AKLY	≤ 0.2
QFSW	≤ 0.2
NTRY	≤ 0.2
LLHN	≤ 0.2
PTNK	≤ 0.2
ALPS	≤ 0.2
NKGR	≤ 0.2
IVMP	≤ 0.2
LQWR	≤ 0.2
QRIF	≤ 0.2
APAS	≤ 0.2
EWNI	≤ 0.2

Variant	one-hybrid fitness for binding parS DNA
ATQG	≤ 0.2
ATGN	≤ 0.2
WQES	≤ 0.2
WMVY	≤ 0.2
KCTG	≤ 0.2
YTSA	≤ 0.2
ETQG	≤ 0.2
YCTF	≤ 0.2
CAQD	≤ 0.2
AKYK	≤ 0.2
NFEG	≤ 0.2
SITH	≤ 0.2
VCLR	≤ 0.2
RFNL	≤ 0.2
QLKT	≤ 0.2
EFTH	≤ 0.2
CTRG	≤ 0.2
RPHT	≤ 0.2
